# Laboratory results taken from PubChem BioAssay AID2101 (National Center for Advancing Translational Sciences (NCATS), 2009).
# Among all 330,000 compounds or so, about 300 (0.091%) were called active. Inconclusive means that the source gave no clear call. Such entries were picked first, then a sample of the others. The call rests on the fitted dose curve; in most records, active means well fitted inhibition curve with a large enough effect; inconclusive means small, poorly fitted or top-dose-only effect, or effect the other way, or another doubt; inactive means no such curve, though single readings can be large or run the other way. Potencies of inconclusive entries are left out as doubtful fits.
# Target: Lysosomal acid glucosylceramidase (Homo sapiens) (UniProt P04062)
# Assay: qHTS Assay for Inhibitors and Activators of N370S glucocerebrosidase as a Potential Chaperone Treatment of Gaucher Disease;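 on activity change, negative = inhibition: 0% = full enzyme activity and -100% = no enzyme basal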
# Conditions: N370S GC spleen homogenate, 4MU-glucoside fluorescence; activity change, negative = inhibition: at 59.4 µM (top of the series) unless noted
# Potency means the concentration at half of the fitted maximal effect.
Structure (SMILES),Potency,"activity change, negative = inhibition"
COc1cc(S(=O)(=O)NCc2cccnc2)ccc1F,"inconclusive [inhibitor, single point]",
Nc1nc(NCCO)nc(NC2CCCCC2)c1[N+](=O)[O-],"inconclusive [inhibitor, partial curve]",
CCc1ccc(NC(=S)Nc2cc(OC)c(NC(=O)C(C)C)cc2OC)cc1,,inactive: 3.26%
CCc1ccc(/C=C2/SC(=S)N(CCC(=O)Nc3cccc(C(=O)O)c3)C2=O)cc1,"inconclusive [inhibitor, single point]",
CCCCCCOc1ccc(/C(C)=N/NC2=NCCN2)cc1[N+](=O)[O-],"inconclusive [inhibitor, single point]",
Cc1cccc(-n2ccnc2SCC(=O)Nc2nccs2)c1,,inactive: -11.5%
CCN(CC)CCCNC(=O)CCC(=O)Nc1ccc2nc(N3CCC(C)CC3)cc(C)c2c1,"inconclusive [activator, single point]",
O=C(/C=C/c1ccccc1Cl)N1CCCN(C(=O)/C=C/c2ccccc2Cl)CC1,"inconclusive [activator, partial curve]",
Cc1cc(NC(=O)CSCC(=O)N(C)Cc2cccc(Cl)c2)no1,,inactive: -6.79%
O=C(Nc1c2ccccc2nc2ccccc12)C(Cl)(Cl)Cl,"inconclusive [activator, single point]",
Cc1cccc(C)c1OCC(=O)Nn1c(=O)[nH]c2ccccc2c1=O,,inconclusive: 30.8% [activator]
O=C(O)c1ccc(N=c2oc3cc(O)ccc3cc2C(=O)NCc2ccccc2)cc1,"inconclusive [activator, single point]",
COc1cc(/C=N/NC(=O)c2ccc(COc3ccccc3Cl)o2)cc(Br)c1O,"inconclusive [inhibitor, full curve, poor fit]",
Cc1ccc(S(=O)(=O)N(CC(=O)Nc2ccccc2)C(=O)N2CCN(C)CC2)cc1,"inconclusive [inhibitor, single point]",
Cc1c(CC=C(Cl)Cl)c(=O)[nH]c2c(C)cccc12,,inactive: 8.76%
COc1ccc(C2CC(c3cccs3)=NN2C(=O)c2ccccc2)cc1OC (configuration not stated),"inconclusive [activator, full curve]",
COc1ccc(C=C(c2nc3ccccc3s2)c2nc3ccccc3s2)cc1O,,inactive: -14.1%
Cc1cc(C)c(C#N)c(SCC(=O)c2ccccc2)n1,"inconclusive [activator, single point]",
COC(=O)c1ccc2nc(Nc3nc4ccc(F)cc4s3)sc2c1,"inconclusive [activator, partial curve]",
COc1cc(Nc2c3ccccc3nc3ccccc23)cc(OC)c1OC,"inconclusive [activator, single point]",
COc1ccc(CNc2ccnc(-c3ccc4c(c3)OCO4)n2)c(OC)c1,"inconclusive [inhibitor, partial curve]",
Cc1cccc2sc(N(CCN(C)C)C(=O)C3CCN(S(=O)(=O)c4cccs4)CC3)nc12,"inconclusive [inhibitor, partial curve]",
CC(Nc1nc(N2CCCC2)nc2ccccc12)c1ccccc1 (configuration not stated),"inconclusive [inhibitor, partial curve]",

Structure (SMILES),Potency,"activity change, negative = inhibition"
Cc1ccccc1NC(=O)N1CCCC(c2nc(-c3ccc(C(C)C)cc3)no2)C1 (configuration not stated),,inactive: 18%
O=C(COc1c(F)c(F)cc(F)c1F)NC(=O)NC1CCCC1,,inactive: 5.55%
Cc1cccc(-n2cnc(C(=O)NC3CCCCCC3)c2)n1,,inactive: -2.88%
CN(Cc1ccco1)c1ncnc2ccc(-c3ccc4c(c3)OCCO4)cc12,,inactive: -7.36%
COc1ccc(CNC[C@@H](CCCCN(C)Cc2ccc(OC)cc2)N2C[C@H](c3ccccc3)N(CCc3ccc(Cl)c(Cl)c3)C(=O)C2=O)cc1,"inconclusive [inhibitor, partial curve]",
COC(=O)c1ccccc1NC(=O)CSCC(=O)Nc1ccc(F)cc1,"inconclusive [activator, partial curve, poor fit]",
Cc1ccccc1CN1CCc2c(OCC(=O)N3CCCc4ccccc43)cccc2C1=O,"inconclusive [activator, full curve]",
C/C=C(/C)C(=O)O[C@@H]1c2c(ccc3ccc(=O)oc23)OC(C)(C)[C@@H]1OC(=O)/C(C)=C\C,"inconclusive [activator, partial curve]",
CCn1c(O)c(N=NC(=O)CNC(=O)c2ccco2)c2ccccc21,"inconclusive [inhibitor, single point]",
Cc1cccc(NC(=O)Cn2nc(C(F)(F)F)cc2C2CC2)c1,,inconclusive: 35.2% [activator]
Cc1cc(C)n(C(=O)CNC(=O)C2COc3ccccc3O2)n1 (configuration not stated),,inactive: 4.91%
CC(C)c1cccc2nc3c(c(C(C)(C)C)c12)Cn1c-3cccc1=O,"inconclusive [activator, single point]",
O=C(NCc1cccs1)c1cccc(Nc2nc3ccc(Br)cc3[nH]2)c1,"inconclusive [inhibitor, single point]",
CSc1nncn1/N=C/c1ccc2c(c1)OCO2,,inconclusive: 31.1% [activator]
COc1ccc(C2Nc3ccccc3C(=O)N2Cc2ccco2)cc1COc1ccccc1F (configuration not stated),"inconclusive [activator, full curve]",
COc1cc(O)c2c(c1)O[C@H](c1ccccc1)CC2=O,,inactive: -5.55%
CC(C)(C)NC(=O)c1cc2c(ccc3ccccc32)oc1=O,"inconclusive [activator, partial curve]",
CCN(CC)c1ccc(NC(=O)c2ccco2)cc1,,inactive: -20.1%
CCOC(=O)c1c(NC(=S)NCC2CCCO2)sc(C)c1C (configuration not stated),"inconclusive [activator, single point]",
Cc1ccc(S(=O)(=O)NN=C2C3CC4CC(C3)CC2C4)cc1,"inconclusive [inhibitor, partial curve, poor fit]",
CC(=O)Oc1ccccc1-c1nc(/C=C/c2ccccc2)no1,,inactive: 16.3%
O=C(/C=C/c1ccc(F)cc1)NC(=S)Nc1ccccc1O,,inactive: 6.17%
COc1ccc2cc(S(=O)(=O)N3CCCC(C)C3)ccc2c1 (configuration not stated),"inconclusive [activator, single point]",

Structure (SMILES),Potency,"activity change, negative = inhibition"
COc1cc(C2C3=C(CC(C)(C)CC3=O)OC3=C2C(=O)CC(C)(C)C3)cc([N+](=O)[O-])c1O,"inconclusive [activator, partial curve]",
CCc1ccc(NC(=O)CSc2nc3ccsc3c(=O)n2CCCCCC(=O)O)cc1,"inconclusive [activator, full curve]",
CCCCc1c(O)nc(SCC(=O)N2CCOCC2)n(-c2ccc(OC)cc2)c1=O,"inconclusive [inhibitor, partial curve]",
O=c1c2ccccc2nc(SCc2cn3ccsc3n2)n1-c1ccccc1,"inconclusive [activator, single point]",
C=C[C@H]1CCC=C2C(=O)CCC[C@@H]21,,inactive: 7.2%
Cc1ccc2nc(-c3ccc(N)cc3)sc2c1,"inconclusive [activator, partial curve]",
CCCCCCc1nc(C(N)=O)c2[nH]c(=O)n(-c3ccccc3F)c2n1,"inconclusive [activator, full curve]",
CCN1C(=NCCc2cccs2)N[C@@H](c2cccs2)C(C(=O)OC)=C1C,"inconclusive [inhibitor, full curve, poor fit]",
COc1ccc(-c2nc(C(=O)NCCCN3CCOCC3)cc3c2[nH]c2ccccc23)cc1OC,"inconclusive [activator, partial curve]",
CCCN1CCN(C(=O)c2oc3ccccc3c2NC(=O)COc2ccc(OC)cc2)CC1,,inactive: 0.5%
CCNC(=O)NC(=O)COC(=O)c1ccccc1SCC(=O)NC(=O)NCC,,inactive: 15.1%
COC1C=CO[C@@]2(C)Oc3c(C)c(O)c4c(O)c(c(C=NN5CCN(C)CC5)c(O)c4c3C2=O)NC(=O)/C(C)=C\C=CC(C)C(O)[C@@H](C)C(O)C(C)[C@H](OC(C)=O)C1C (some centres not stated),"inconclusive [inhibitor, single point]",
C=C(C)COc1ccc(-c2nc(N)nc(C)c2Oc2ccccc2OC)c(O)c1,"inconclusive [activator, partial curve]",
CC(C)Cn1c(C23CC4CC(CC(C4)C2)C3)n[nH]c1=S,"inconclusive [activator, partial curve]",
CC1(C)Oc2ccc3ccc(=O)oc3c2/C(=C/O)C1=O,"inconclusive [activator, partial curve]",
COc1ccc2cc3cc(C(=O)N4CCN(Cc5ccc6c(c5)OCO6)CC4)oc3nc2c1,,inactive: -10%
CCNc1cc(S(=O)(=O)C(F)(F)F)ccc1N,,inactive: -5.73%
CCCCCCCCCC[N+](C)(C)CC/C=C1/c2ccccc2Sc2ccc(Cl)cc21,"inconclusive [inhibitor, partial curve]",
CC(C)OC(=O)c1cn(Cc2c(F)cccc2F)c2sc(-c3ccc(NC(=O)C(C)C)cc3)c(CN(C)Cc3ccccc3)c2c1=O,,inactive: -8.22%
COc1ccc(CCNc2oc(-c3cccc4ccccc34)nc2P(=O)(OC)OC)cc1OC,"inconclusive [activator, partial curve]",
COc1ccc(S(=O)(=O)N2CCCCCC2)cc1NC(=O)Cc1n[nH]c(=O)c2ccccc12,"inconclusive [inhibitor, single point]",
